Assay results: PubChem BioAssay (NCATS)
Several values for one entry are separate records, joined by “and”; a condition that tells them apart may be missing. Equal values may be shown once. This list was built around the results that the source calls inconclusive (neither active nor inactive); the mix of calls is not that of the screen. Potencies of inconclusive entries are doubtful fits and often do not repeat. Activity calls are given as the source filed them. Unless noted, the call rests on the fitted dose curve; in most records, active means well fitted curve in the direction sought with a large enough effect; inconclusive means small, poorly fitted or top-dose-only effect, or another doubt; inactive means no such curve, though single readings can be large; an effect the other way counts as inactive or inconclusive.

Legend:
[1] = molecular target: Aldehyde dehydrogenase, mitochondrial (Homo sapiens) (UniProt P05091); experiment: qHTS for Inhibitors of the Aldehyde Dehydrogenase Family (ALDH2) Confirmatory screens (AID 2061303; active means well fitted inhibition curve with a large enough effect; inconclusive means small, poorly fitted or top-dose-only effect; inactive means no such curve, though single readings can be large or run the other way; title and protocol of this record describe different tests; further: nearly all actives have a fitted effect of over 45% in size); details: ALDH inhibition qHTS; activity change, negative = inhibition: at 45.4 µM (top of the series)
[2] = qHTS for Inhibitors of the Aldehyde Dehydrogenase Family (ALDH1A2, ALDH1A3, ALDH2, ALDH3A1) (AID 2061307); details: ALDH inhibition qHTS; activity change, negative = inhibition: at 50.3 µM (top of the series) unless noted; further: nearly all actives have a fitted effect of over 50% in size; on Potency: test system not described further here
[3] = molecular target: Aldehyde dehydrogenase, mitochondrial (Homo sapiens) (UniProt P05091); experiment: qHTS for Inhibitors of the Aldehyde Dehydrogenase Family (ALDH2) Primary screen (AID 2061308); further: nearly all actives have a fitted effect of over 55% in size
[4] = molecular target: Retinaldehyde dehydrogenase 3 (Homo sapiens) (UniProt P47895); experiment: qHTS for Inhibitors of the Aldehyde Dehydrogenase Family (ALDH1A3) Confirmatory screens (AID 2061311); details: activity change, negative = inhibition: at 46 µM (top of the series); further: nearly all actives have a fitted effect of over 60% in size
[5] = molecular target: Retinal dehydrogenase 2 (Homo sapiens) (UniProt O94788); experiment: qHTS for Inhibitors of the Aldehyde Dehydrogenase Family (ALDH1A2) Confirmation screens (AID 2061314); details: activity, negative = inhibition: at 45.9 µM (top of the series) unless noted; further: nearly all actives have a fitted effect of over 65% in size
[6] = molecular target: Retinaldehyde dehydrogenase 3 (Homo sapiens) (UniProt P47895); experiment: qHTS for Inhibitors of the Aldehyde Dehydrogenase Family (ALDH1A3) Primary screen (AID 2061315); details: ALDH inhibition qHTS; activity change, negative = inhibition: at 56 µM (top of the series) unless noted
[7] = molecular target: Aldehyde dehydrogenase 1A1 (Homo sapiens) (UniProt P00352); experiment: qHTS for Inhibitors of the Aldehyde Dehydrogenase Family (ALDH1A1) Confirmatory screens (AID 2061316); details: activity change, negative = inhibition: at 47.3 µM (top of the series); further: nearly all actives have a fitted effect of over 65% in size
Potency means the concentration at half of the fitted maximal effect; tags describe the fitted curve by direction and shape.

| Compound | Potency [1] | Potency [2] | Potency [3] | Potency [4] | Potency [5] | Potency [6] | Potency [7] |
| --- | --- | --- | --- | --- | --- | --- | --- |
| N#Cc1c(C(=O)c2cccs2)no[n+]1[O-] | active: 3.98 µM | active: 2.24 µM | active: 0.282 µM | active: 1.59 µM | active: 3.16 µM | inconclusive: 2.24 µM [inhibitor, full curve] |  |
| O=C1c2ccccc2NC(c2ccc(-c3ccc(Br)cc3)o2)N1O (stereo not drawn) | active: 0.891 µM | active: 11.3 µM | active: 1 µM | active: 12.7 µM | active: 12.7 µM | inactive | inconclusive: 15.9 µM [inhibitor, partial curve] |
| Cc1cc(C)nc(NC(=S)N2CC3CN(c4ncc(C(F)(F)F)cc4Cl)CC3C2)c1 (stereo not drawn) | inconclusive: 25.2 µM [inhibitor, partial curve, poor fit] | inactive | active: 2.51 µM | inconclusive: 20.1 µM [inhibitor, partial curve] | inactive | inconclusive: 1.78 µM [inhibitor, full curve, poor fit] |  |
| Cc1cc(C)nc(NC(=S)N2CCN(c3ccc4ccccc4c3)CC2)c1 | active: 11.3 µM | active: 3.55 µM | active: 11.2 µM | active: 7.12 µM | active: 12.7 µM | inconclusive: 6.31 µM [inhibitor, partial curve] |  |
| O=C1c2ccccc2NC(c2ccc(-c3ccc(C(F)(F)F)cc3)o2)N1O (stereo not drawn) | inconclusive: 0.0708 µM [inhibitor, full curve, poor fit] | inconclusive: 15.8 µM [inhibitor, full curve] | active: 4.47 µM | inconclusive: 5.62 µM [inhibitor, full curve] | active: 22.5 µM | inactive |  |
| CCC(=O)NC(c1cccs1)c1cc([N+](=O)[O-])c2cccnc2c1OC (stereo not drawn) | inconclusive: 4.49 µM [inhibitor, partial curve] | inconclusive: 0.4 µM [inhibitor, full curve] | inconclusive: 11.2 µM [inhibitor, partial curve] and inconclusive: 8.91 µM [inhibitor, partial curve] | active: 3.57 µM | active: 2.01 µM | inconclusive: 5.01 µM [inhibitor, partial curve] and inconclusive: 3.98 µM [inhibitor, full curve] | active: 11.3 µM |
| COC(=O)c1ccnc(NCc2ccc(O)c3ncccc23)c1 | inconclusive: 1.58 µM [inhibitor, full curve, poor fit] | active: 11.3 µM | inconclusive: 20 µM [inhibitor, partial curve, poor fit] | active: 7.12 µM | inconclusive: 12.7 µM [inhibitor, partial curve] | inconclusive: 10 µM [inhibitor, partial curve, poor fit] |  |
| Oc1ccc(CNc2cccnc2)c2cccnc12 | active: 10.1 µM | active: 7.98 µM | inconclusive: 10 µM [inhibitor, partial curve] | active: 4.49 µM | active: 5.65 µM | inconclusive: 22.4 µM [inhibitor, single point] |  |
| CCOC(=O)c1c(-c2ccc(C)o2)csc1NC(=O)CSc1nnnn1-c1ccccc1 | inconclusive: 14.2 µM [inhibitor, partial curve] | inconclusive: 10.1 µM [inhibitor, partial curve] | inconclusive: 7.94 µM [inhibitor, partial curve, poor fit] | inconclusive: 25.2 µM [inhibitor, single point] | active: 5.04 µM |  |  |
| COc1cc(NS(=O)(=O)c2cccc([N+](=O)[O-])c2)c2ncccc2c1 | inconclusive: 11.3 µM [inhibitor, partial curve] | active: 11.3 µM | inconclusive: 15.8 µM [inhibitor, partial curve, poor fit] | active: 5.65 µM | active: 3.18 µM | inconclusive: 6.31 µM [inhibitor, partial curve] | inconclusive: 7.98 µM [inhibitor, full curve, poor fit] |
| O=C(O)c1cc(Br)c(O)c2ncccc12 | inconclusive: 0.0007 µM [inhibitor, full curve] | inconclusive: 0.283 µM [inhibitor, full curve] | inconclusive: 1.12 µM [inhibitor, full curve] | inactive | active: 0.449 µM | inconclusive: 20 µM [inhibitor, single point] | inconclusive: 0.712 µM [inhibitor, full curve] |
| O=C1c2ccccc2NC(c2ccc(Br)o2)N1O (stereo not drawn) | active: 5.04 µM | active: 10.1 µM | active: 1.41 µM | active: 7.12 µM | inconclusive: 6.34 µM [inhibitor, full curve] | inconclusive: 2 µM [inhibitor, full curve] |  |
| Cc1ccc(C(=O)Nc2noc3ccccc23)cc1 | inconclusive: 0.562 µM [inhibitor, full curve, poor fit] | inconclusive: 7.94 µM [inhibitor, full curve, poor fit] | inactive | active: 1.27 µM | inactive | active: 5.01 µM | inactive |
| Brc1ccc(-c2ccc(C3Nc4cccc5cccc(c45)N3)o2)cc1 | active: 0.896 µM | inconclusive: 0.565 µM [inhibitor, full curve] | inconclusive: 1.58 µM [inhibitor, full curve, poor fit] | active: 7.12 µM | inconclusive: 14.2 µM [inhibitor, partial curve] | inconclusive: 2.24 µM [inhibitor, full curve, poor fit] |  |
| CC(C)c1cc2c(c(O)c1O)[C@@]13CCCC(C)(C)[C@@H]1[C@H](OC3=O)C2=O | inconclusive: 4.94 µM [inhibitor, partial curve] | inconclusive: 0.312 µM [inhibitor, full curve, poor fit] | inconclusive: 10 µM [inhibitor, partial curve] | inconclusive: 13.9 µM [inhibitor, partial curve] | inconclusive: 17.5 µM [inhibitor, partial curve] | inconclusive: 5.01 µM [inhibitor, partial curve] | inconclusive: 5.54 µM [inhibitor, partial curve] |
| O=C(O)c1ccc(O)c2ncc(-c3ccc(N4CCOCC4)cc3)cc12 | inconclusive: 5.65 µM [inhibitor, partial curve] | inconclusive: 0.112 µM [inhibitor, full curve, poor fit] | inconclusive: 2.82 µM [inhibitor, full curve, poor fit] | inconclusive: 12.7 µM [inhibitor, partial curve] | inconclusive: 0.4 µM [inhibitor, full curve] |  | inconclusive: 11.3 µM [inhibitor, partial curve] |
| COc1ccc(C2Nc3ccccc3C(=O)N2Cc2ccncc2)cc1COc1ccc(NC(C)=O)cc1 (stereo not drawn) | inconclusive: 12.7 µM [inhibitor, partial curve] | active: 3.57 µM | inactive | inconclusive: 11.2 µM [inhibitor, full curve] | active: 5.04 µM |  | inconclusive: 20.1 µM [inhibitor, partial curve] |
| O=C(/C=C/c1ccc(O)c(O)c1)O[C@@H]1[C@@H](O)[C@H](OC2CCCCC2O)O[C@H](CO)[C@H]1O (stereo partly drawn) | inconclusive: 2.76 µM [inhibitor, partial curve, poor fit] | inactive | inconclusive: 12.6 µM [inhibitor, partial curve, poor fit] | active: 5.51 µM | inactive | active: 3.98 µM | inconclusive: 4.91 µM [inhibitor, partial curve] |
| OC[C@H]1O[C@@H](OC(CCCCc2ccc(O)cc2)CCc2ccc(O)cc2)[C@H](O)[C@@H](O)[C@@H]1O (stereo partly drawn) | inconclusive: 9.79 µM [inhibitor, partial curve, poor fit] | inactive | inactive | inconclusive: 12.3 µM [inhibitor, partial curve] | inconclusive: 11 µM [inhibitor, partial curve] | inconclusive: 5.01 µM [inhibitor, partial curve] | inconclusive: 9.79 µM [inhibitor, partial curve, poor fit] |
| C=C1C(O)CCC2(C)CC3(OC)OC(=O)C(C)=C3CC12 (stereo not drawn) | inactive | inconclusive: 22.5 µM [inhibitor, partial curve] | inconclusive: 28.2 µM [inhibitor, partial curve, poor fit] | inconclusive: 20.1 µM [inhibitor, partial curve] | inconclusive: 22.5 µM [inhibitor, partial curve] |  | inconclusive: 25.2 µM [inhibitor, single point] |
| Cc1ccc(C)n1-c1cccc(C(=O)O)c1 | inconclusive: 12.7 µM [inhibitor, partial curve] | active: 5.65 µM | inconclusive: 7.08 µM [inhibitor, partial curve] and inconclusive: 3.98 µM [inhibitor, full curve] | inconclusive: 12.7 µM [inhibitor, partial curve] | inconclusive: 11.3 µM [inhibitor, partial curve] |  | inconclusive: 11.3 µM [inhibitor, partial curve] |
